The supplement of paper PMC3334620
The full ranking holds about 33,000 sequences; the median of “E-score (-0.5 to 0.5)” is about -0.035, and the highest 2% start at about 0.35. The list shows a part of the results.

These sequences were tested against T1, Pdr3 (UniProt P33200) (assay: PBM E-score (8-mer binding enrichment) (E-score (-0.5 to 0.5)); higher = stronger / more preferred TF binding; most listed sequences are background and not binding sites). Conditions: protein concentration: 200 nM; construct: GST-full length.
T1 sequence: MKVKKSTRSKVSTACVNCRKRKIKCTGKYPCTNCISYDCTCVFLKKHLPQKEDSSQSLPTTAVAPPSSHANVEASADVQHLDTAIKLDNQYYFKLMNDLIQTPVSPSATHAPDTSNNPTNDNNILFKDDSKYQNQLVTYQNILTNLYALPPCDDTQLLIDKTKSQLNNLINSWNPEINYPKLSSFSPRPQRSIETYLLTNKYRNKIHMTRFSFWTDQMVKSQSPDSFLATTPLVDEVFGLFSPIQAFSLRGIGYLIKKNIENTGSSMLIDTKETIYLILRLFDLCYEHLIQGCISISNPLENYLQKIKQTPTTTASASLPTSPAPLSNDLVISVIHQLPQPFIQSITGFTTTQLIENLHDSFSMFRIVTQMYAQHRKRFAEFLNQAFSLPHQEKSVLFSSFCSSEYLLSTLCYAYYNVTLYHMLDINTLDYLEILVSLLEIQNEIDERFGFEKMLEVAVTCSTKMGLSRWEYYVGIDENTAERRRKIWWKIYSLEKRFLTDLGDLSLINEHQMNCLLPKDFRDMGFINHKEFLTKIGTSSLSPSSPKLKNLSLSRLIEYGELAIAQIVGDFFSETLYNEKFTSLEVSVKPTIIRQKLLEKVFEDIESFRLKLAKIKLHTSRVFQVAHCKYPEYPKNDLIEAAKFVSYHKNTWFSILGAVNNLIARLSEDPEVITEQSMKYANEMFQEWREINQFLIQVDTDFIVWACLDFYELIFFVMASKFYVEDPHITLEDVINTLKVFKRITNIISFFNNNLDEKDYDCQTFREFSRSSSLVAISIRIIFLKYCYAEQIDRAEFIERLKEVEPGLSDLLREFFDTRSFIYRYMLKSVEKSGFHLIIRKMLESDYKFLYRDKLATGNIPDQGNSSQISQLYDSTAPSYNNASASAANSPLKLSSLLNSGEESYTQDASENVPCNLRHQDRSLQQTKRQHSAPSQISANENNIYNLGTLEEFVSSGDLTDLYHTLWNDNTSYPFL
Procedure, shortened: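 The E-score, a modified Wilcoxon-Mann-Whitney statistic, was computed by the Universal PBM Analysis Suite for every ungapped eight-base word pooled with its reverse complement. Scans behind it were normalised with masliner after bound GST-tagged yeast transcription factors were detected with fluorescent anti-GST. The proteins, at about 100-200 nM, had been applied to universal all-10-mer Agilent arrays made double-stranded by primer extension.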

Row | Sequence | PBM E-score
1 | AAACACGT | -0.207
2 | CCTATAAG | -0.115
3 | AGGTGGAA | 0.0633
4 | ACAAGTCG | -0.222
5 | ACAGATCC | 0.265
6 | AATCAATT | 0.2
7 | AGGATACC | 0.043
8 | AGGCACTA | -0.111
9 | ATACGTCC | 0.051
10 | AGCTAGCG | -0.0532
11 | CATTTCTA | -0.0363
12 | AGAGTTGA | -0.00429
13 | AGATTTCG | 0.155
14 | TGTACCAA | -0.125
15 | ACCGGCCG | 0.35
16 | GAACCCAC | 0.159
17 | GACGGGAA | 0.203
18 | GAAGTCCC | 0.0249
19 | ATGATACG | 0.0414
20 | CTCTGGCC | 0.00278
21 | GTGACCAA | -0.0611
22 | GCGGTACC | 0.219
23 | GTCGTGAA | -0.31
24 | TGCCAGCA | -0.118
25 | TCACAGCA | -0.00302

Row | Sequence | PBM E-score
26 | GAATTAGC | 0.0936
27 | GAGATCAC | 0.0419
28 | AAAGTAAT | 0.185
29 | AGAAGTAC | -0.217
30 | TGCGCAAA | 0.0675
31 | AACACACA | -0.0615
32 | AACGGCGG | 0.183
33 | CAACAGGG | 0.00221
34 | AGCGACCG | 0.0621
35 | ACCTCCGC | 0.287
36 | CAGACCAA | -0.117
37 | CAAGGTTA | -0.0279
38 | AATAATTG | -0.0342
39 | CAAGCACA | -0.271
40 | CTTGTTCA | -0.141
41 | ATAACGAA | 0.159
42 | CCGTACGG | 0.154
43 | ACAGTGGG | -0.185
44 | AAAGTATA | -0.077
45 | CATGCCCG | 0.234
46 | GCAAAATA | 0.0209
47 | GCAATAGC | 0.12
48 | CGCAATGA | -0.0375
49 | ATCAGTAA | 0.0366
50 | CTTCTTCA | -0.179

Row | Sequence | PBM E-score
51 | GGTCGACC | 0.38
52 | AGAATAAA | 0.0145
53 | ACAGAGTG | -0.182
54 | AATGATAT | 0.0572
55 | GTGCCTAA | -0.288
56 | GACGGCTA | -0.0347
57 | AGGGACAT | 0.14
58 | TAAGAATA | -0.213
59 | ATGCGTCG | -0.0223
60 | CAGTAAAA | -0.0121
61 | ATCGTGAA | -0.0202
62 | ACGGTATC | 0.167
63 | CCGATAGA | 0.179
64 | CCTTTAGA | -0.22
65 | CAACAACG | -0.148
66 | CATCATAA | -0.0649
67 | AACGGCCC | -0.0218
68 | CCAGAAAA | -0.034
69 | CTAATGAC | -0.398
70 | CCGTGGTA | 0.174
71 | ACTTTTAT | -0.258
72 | AATAAGAT | -0.0958
73 | TGGGTACA | -0.0985
74 | TAGCGTGA | -0.257
75 | ATCATTTG | 0.165

Row | Sequence | PBM E-score
76 | GGGTAATA | 0.144
77 | CGATACGA | -0.107
78 | CAGCAAAC | 0.00115
79 | CCCTACTA | -0.155
80 | GATATGTA | -0.047
81 | CATTGAAG | -0.15
82 | TTAGCGAA | 0.0125
83 | CGGCTCGC | 0.253
84 | CAATTCCA | 0.0797
85 | CGTTATGC | -0.156
86 | CTTACTGA | -0.202
87 | ATCTACAC | -0.105
88 | CCCGATAG | 0.0396
89 | ACTTTGTA | -0.099
90 | CGGCCTAC | 0.158
91 | GAAGTAGA | -0.00101
92 | ACAAGCAT | -0.0569
93 | ATGCTGAC | -0.148
94 | CGATGCTC | 0.0562
95 | TCACTGCA | -0.0283
96 | TAAACGGA | 0.366
97 | AGCCACAG | -0.217
98 | CCCCTACC | -0.106
99 | ACAAAAAG | -0.034
100 | CAATATAG | -0.0133

Row | Sequence | PBM E-score
101 | CTGCACTA | 0.0614
102 | AGGCATAA | -0.232
103 | GTGCACAA | 0.00448
104 | ATTGTCTG | 0.00421
105 | ATGGTCGG | 0.128
106 | AGTACCGC | 0.12
107 | CAGAAAGC | -0.162
108 | AAGTCCGT | 0.209
109 | GGTTTAAA | -0.117
110 | ACGTCGAA | -0.0501
111 | CCGACCAC | 0.127
112 | ACTAGGAC | -0.139
113 | AACTCTGA | 0.192
114 | AGATCTTG | -0.148
115 | AACCAGAA | -0.0275
116 | GAAAGTGA | -0.0428
117 | CTGAATTA | 0.0139
118 | CTGCTAGC | -0.305
119 | AAATTACT | -0.0488
120 | AGCGCAAT | -0.00628
121 | AGATGACT | -0.182
122 | AGGCCTCG | -0.0112
123 | AATATTCG | 0.0118
124 | GCAAACGC | 0.166
125 | CCCTACCC | -0.0539

Row | Sequence | PBM E-score
126 | GACGTGCA | -0.167
127 | TAGTAGGA | -0.0406
128 | ACTAACAA | -0.158
129 | TCCAACAA | -0.159
130 | GACGTATC | -0.0675
131 | CAATCTCG | 0.0488
132 | AAGGACGA | -0.0955
133 | ATGCTCCA | 0.066
134 | GAATTCGC | 0.181
135 | CGACGCCG | 0.215
136 | AAAAGAGG | -0.284
137 | GCTTTGAC | 0.0463
138 | ACCGGGCC | 0.25
139 | ACCGACAC | 0.0843
140 | AGGTATAC | -0.113
141 | ACACCGTA | -0.107
142 | ACTTCGCA | -0.192
143 | CCTCATCC | -0.0556
144 | CAGGTAGC | -0.0668
145 | TAATTGTA | -0.0754
146 | AGAACCTC | 0.00316
147 | CTGGGGAA | -0.193
148 | ATCATCAC | -0.103
149 | CCGTAGCG | 0.0439
150 | TCTCAGAA | -0.219

Row | Sequence | PBM E-score
151 | CAATGCGC | 0.175
152 | TGGGAAAA | -0.104
153 | AAGCATTA | -0.217
154 | AATATTGA | 0.0615
155 | TCAAGTGA | -0.203
156 | CTACGGGC | -0.24
157 | CGATGCTA | -0.0121
158 | CATGACAC | 0.00348
159 | CCAACATA | 0.181
160 | CAAGTCTG | -0.271
161 | CCCTAAGC | -0.251
162 | CGTGCGCA | -0.111
163 | CAGGGTGA | -0.201
164 | AGTCGCTC | -0.212
165 | CAGCATTC | -0.0081
166 | ATCTGAAC | 0.0373
167 | ACTTCTGG | -0.155
168 | GTTACATA | -0.167
169 | ACTTTGTG | 0.0119
170 | ACCAAATA | 0.0784
171 | CGCCACGA | -0.209
172 | GCCTGCAC | -0.154
